Experimental data reported in the supplement of paper PMC4967469.
By IC50 is meant the dose at which the fit gives 50% viability; fits outside the tested doses are given as limits. AUC is the area under the same curve over the 256-fold range up to the top dose, as a fraction; the more sensitive the line, the further below 1. The top dose, if marked as inferred, was derived from the fitted curves, not read from the paper. For some assays here: Drugs with an entry number were screened twice under separate entries, and the two screens often disagree.

How the values were obtained:
Assay in all cases: Viability of human cancer cell lines after 72 h of drug (GDSC screen)
[1] = compound: Cc1cc(N2CCOCC2)cc2[nH]c(-c3c(NC[C@@H](O)c4cccc(Cl)c4)cc[nH]c3=O)nc12 [BMS-536924]; conditions: top dose 4 µM; screen: GDSC drug entry 1091; top dose inferred
Description: (§1)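 Human cancer cell lines in 384-well plates, medium with 10% serum, drug for 72 h over a 256-fold dose range (nine 2-fold or five 4-fold steps up to the top dose). Adherent lines were fixed and stained with the nucleic acid dye Syto60, suspension lines read with resazurin; signal relative to control wells, capped at 0 and 100%. One two-parameter sigmoid per drug and line, fitted in a mixed model over all curves with the slope shared within a line.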

[2] = compound: CC(C)=CC[C@@H](O)C1=CC(=O)c2c(O)ccc(O)c2C1=O [Shikonin]; conditions: top dose 16 µM; top dose inferred
Description: as §1

[3] = compound: Cc1cccc(-c2[nH]c(C(C)(C)C)nc2-c2ccc3nccnc3c2)n1 [SB-525334]; conditions: top dose 20 µM; top dose inferred
Description: as §1

[4] = compound: O=C1NC(=O)c2c1c(-c1ccccc1Cl)cc1[nH]c3ccc(O)cc3c21 [Wee1 inhibitor 681640]; conditions: top dose 2 µM; top dose inferred
Description: as §1

[5] = compound: Cc1ccc(-n2nc(C(C)(C)C)cc2NC(=O)Nc2ccc(OCCN3CCOCC3)c3ccccc23)cc1 [BIRB 0796]; conditions: top dose 10 µM; top dose inferred
Description: as §1

[6] = compound: NC(=O)c1ccc(N(C(N)=O)c2c(F)cccc2F)nc1-c1ccc(F)cc1F [VX-702]; conditions: top dose 2 µM; top dose inferred
Description: as §1

[7] = compound: O=C(c1cc(Cc2n[nH]c(=O)c3ccccc23)ccc1F)N1CCN(C(=O)C2CC2)CC1 [Olaparib]
Description: as §1

[8] = top dose 5 µM, screen: GDSC drug entry 1017, top dose inferred
[9] = top dose 10 µM, screen: GDSC drug entry 1495

Cell Line	AUC [1]	IC50 [1] [µM]	AUC [2]	IC50 [2] [µM]	AUC [3]	IC50 [3] [µM]	AUC [4]	IC50 [4] [µM]	AUC [5]	IC50 [5] [µM]	AUC [6]	IC50 [6] [µM]	AUC [7, 8]	IC50 [7, 8] [µM]	AUC [7, 9]	IC50 [7, 9] [µM]
NCI-H1435 (lung adenocarcinoma, semi-adherent)	0.986	> 4	0.653	2.52	0.981	> 20	0.992	> 2	0.992	> 10	0.961	> 2	0.971	> 5	0.984	> 10
NCI-H2009 (lung adenocarcinoma, adherent)	0.912	> 4	0.155	0.0799	0.976	> 20	0.954	> 2	0.925	> 10	0.987	> 2	0.971	> 5	0.939	> 10
NCI-H2172 (non-small cell lung carcinoma, adherent)	0.902	> 4	0.935	> 16	0.944	> 20	0.979	> 2	0.967	> 10	0.983	> 2	0.979	> 5	0.981	> 10
NCI-H2342 (lung adenocarcinoma, adherent)	0.933	> 4	0.237	0.158	0.986	> 20	0.986	> 2	0.983	> 10	0.986	> 2	0.986	> 5	0.905	> 10
NCI-H2405 (lung adenocarcinoma, adherent)	0.93	> 4	0.418	0.583	0.944	> 20	0.977	> 2	0.96	> 10	0.985	> 2	0.983	> 5	0.959	> 10
NCI-H2444 (non-small cell lung carcinoma, adherent)	0.967	> 4	0.68	3.44	0.979	> 20	0.988	> 2	0.981	> 10	0.988	> 2	0.988	> 5	0.985	> 10
NCI-H2452 (mesothelioma, adherent)	0.919	> 4	0.853	> 16	0.984	> 20	0.982	> 2	0.952	> 10	0.984	> 2	0.984	> 5	0.918	> 10
OE19 (oesophagus, adherent)	0.978	> 4	0.587	1.79	0.986	> 20	0.955	> 2	0.969	> 10	0.981	> 2	0.985	> 5	0.942	> 10
